Hit rate of the full screen: of about 45,000 compounds, about 200 (0.44%) were called active. Inconclusive results (about 7%) are left out. Calls follow the shape of the dose curve; as a rule, active = well fitted activation curve with a large enough effect; inconclusive = small, poorly fitted or top-dose-only effect; inactive = no such curve, though single readings can be large or run the other way. This is one part of the list.

A short description of this test: qHTS of TDP-43 Inhibitors: NCGC Sytravon Library Screen. Also: 0% is about no effect; nearly all actives have a fitted effect of over 55% in size. To be noted: yeast TDP-43 toxicity rescue, BacTiter-Glo growth, 24 h; series mostly up to 46.1 µM; growth rescue (activation): at the top concentration. In short, it runs like this: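 TDP-43-expressing yeast, pregrown in raffinose, seeded at OD600 0.02 in galactose medium with compound for 24 hr at 30 deg C. Growth read by BacTiter-Glo luminescence, so rescue of toxicity appears as activation.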
(In general: In qHTS, concentration-response curves come from the screen itself.)
Take `O=C(CCCSc1ccccc1)Nc1nc(-c2ccccn2)cs1`: the “growth rescue (activation)” value is inactive: -81%.

Consider `c1ccc(-c2nnc(Cn3c4ccccc4c4nc5ccccc5nc43)o2)cc1`, for which the “growth rescue (activation)” value was inactive: 13.7%.

As to `CCOc1ccc(N2CC(C(=O)Nc3ccccn3)CC2=O)cc1` (configuration not stated), the “growth rescue (activation)” value was inactive: 4.46%.

Take `COc1ccc(CN2CCN(C(=O)c3ccc(S(=O)(=O)N4CCCCCC4)cc3)CC2)cc1`: the “growth rescue (activation)” value is inactive: 4.67%.

Regarding `COc1ccc(C2CC(c3ccccc3)=NN2C(=O)COC(=O)c2cnc(Cl)c(Cl)c2)cc1` (configuration not stated), the “growth rescue (activation)” value is inactive: 12.4%.

For the compound `Cc1c(C(=O)Nc2nc3ccccc3[nH]2)oc2c(Cl)cccc12`, the “growth rescue (activation)” value is inactive: -5.26%.

As for `O=C1/C(=C/c2ccncc2)SC(=S)N1C1CCCCC1`, the “growth rescue (activation)” value is inactive: 16.6%.

With `CCOC(=O)N1CCN(C(=O)Cn2cc3c(n2)CCCC3)CC1`, the “growth rescue (activation)” value is inactive: -0.579%.

Consider `NC(=O)c1nsc(C(=O)N(c2cccc(F)c2)C(C(=O)NC2CCCC2)c2ccco2)c1N` (configuration not stated), for which the “growth rescue (activation)” value was inactive: 6.11%.

For the compound `O=C(O)c1ccc(N2C(=O)c3cccc4c(C(=O)O)ccc(c34)C2=O)cc1`, the “growth rescue (activation)” value was inactive: -60.6%.

Regarding `COc1ccc(S(=O)(=O)/N=C2/NC(=O)/C(=C\c3ccco3)S2)cc1`, the “growth rescue (activation)” value was inactive: 8.25%.

For `CN(Cc1ccsc1)C(=O)Cn1cc(Br)ccc1=O`, the “growth rescue (activation)” value is inactive: -17.8%.

With `CS(=O)(=O)c1ccc2nc(NC(=O)CN3CCC(Cc4ccccc4)CC3)sc2c1`, the “growth rescue (activation)” value was inactive: -6.74%.

Turning to `CCOC(=O)c1c(C)[nH]c(C(=O)COC(=O)[C@H](C)NC(=O)c2ccccc2Cl)c1C`, the “growth rescue (activation)” value was inactive: 25.5%.

Regarding `CC(=O)N1CCc2cc(S(=O)(=O)NC(CC(C)C)C(=O)Nc3cc(C(=O)O)ccc3C)ccc21` (configuration not stated), the “growth rescue (activation)” value was inactive: 23.9%.

`CCCCC(O)(CCCC)C(=O)NNc1ccccc1`: the “growth rescue (activation)” value is inactive: 8.68%.

For `CCOC(=O)c1c(NC(=O)C2C3C=CC(C3)C2(C)C(=O)O)sc2c1CCCC2` (configuration not stated), the “growth rescue (activation)” value is inactive: 17.2%.

In the case of `Cc1cc(N)ccc1NC(=O)CN1CCOCC1`, the “growth rescue (activation)” value is inactive: 4.74%.

`Cc1sc2nc(C(C)C)nc(SCC(=O)N3CCOCC3)c2c1C`: the “growth rescue (activation)” value is inactive: 35.4%.

`O=c1[nH]c2c(Br)cnc([N+](=O)[O-])c2[nH]1`: the “growth rescue (activation)” value is inactive: -3.21%.

With `CCOc1ccc(-c2noc([C@@H]3O[C@H](CO)[C@@H](O)[C@H]3O)n2)cc1`, the “growth rescue (activation)” value is inactive: 3.35%.

Consider `COC(=O)c1ccc(CN2CCCC(C(=O)Nc3cccc(-n4cnnn4)c3)C2)cc1` (configuration not stated), for which the “growth rescue (activation)” value was inactive: 14.2%.

Regarding `Cc1ccc(S(=O)(=O)N2CCOCC2)cc1NC(=O)CNc1ccccc1N1CCCC1=O`, the “growth rescue (activation)” value is inactive: 16.2%.

For `CC(C)c1nnc(NC(=O)C2CCN(C(=O)Nc3ccc(Cl)cc3)CC2)s1`, the “growth rescue (activation)” value was inactive: 0.792%.

With `O=c1oc2ccccc2cc1-c1csc(Cc2nc(-c3ccc(Cl)cc3)cs2)n1`, the “growth rescue (activation)” value is inactive: 2.5%.

As to `O=C(COC(=O)c1ccc2ccccc2c1O)Nc1ccccc1`, the “growth rescue (activation)” value was inactive: 6.97%.

`CC[C@H](C)[C@H](NC(N)=O)C(=O)NCCc1ccc(OC)cc1`: the “growth rescue (activation)” value was inactive: 6.19%.

In the case of `Cc1ccc(-n2c(SCC(=O)N(C)C3CCS(=O)(=O)C3)nc3ccccc3c2=O)cc1` (configuration not stated), the “growth rescue (activation)” value is inactive: 10.7%.

Take `COc1ccc(CN(C)CC(O)COc2ccc(C(=O)c3ccccc3)cc2)c(OC)c1OC` (configuration not stated): the “growth rescue (activation)” value was inactive: -0.344%.

`CCCCCCOc1ccc(C(CC(=O)O)C(N)=O)cc1` (configuration not stated): the “growth rescue (activation)” value was inactive: 12.3%.

Regarding `COc1ccccc1NC(=O)/C(=N/OCc1ccc(F)cc1)C(C)=O`, the “growth rescue (activation)” value was inactive: 22.2%.

For `CCC(CC)NCc1ccc2c(c1)c1ccccc1n2CC`, the “growth rescue (activation)” value was inactive: -0.838%.

For the compound `O=C(/C=C/c1cn(-c2ccccc2)nc1-c1ccccc1)Nc1ccc(C(=O)O)cc1`, the “growth rescue (activation)” value is inactive: -17.2%.

Consider `Cc1onc(-c2ccccc2)c1C(=O)N1CCOCC1`, for which the “growth rescue (activation)” value was inactive: -2.82%.

Take `O=C(Nc1ncccn1)c1cc(-c2ccc(F)cc2)nc2ccccc12`: the “growth rescue (activation)” value was inactive: 6.76%.

Turning to `Cc1ccccc1/C=N/n1c(-c2cc(-c3ccccc3)n[nH]2)n[nH]c1=S`, the “growth rescue (activation)” value is inactive: 12.6%.

In the case of `Oc1ccc2n[nH]nc2c1`, the “growth rescue (activation)” value is inactive: 4.54%.

`O=C(COc1ccc(Cl)cc1Cl)NNC(=O)c1cccnc1`: the “growth rescue (activation)” value was inactive: -0.607%.

With `CC(C)=NNc1nc2c(c(=O)[nH]c(=O)n2C)n1CCc1ccccc1`, the “growth rescue (activation)” value was inactive: -11%.

Regarding `CS(=O)(=O)N1CCCC(C(=O)N2CCN(c3cccc(Cl)c3)CC2)C1` (configuration not stated), the “growth rescue (activation)” value is inactive: 13.9%.

In the case of `O=C(Nc1cccnc1Cl)c1cccs1`, the “growth rescue (activation)” value was inactive: 14.3%.

Turning to `Cc1ccc(N2C(=O)C3Sc4[nH]c(=O)sc4C(c4ccccc4)C3C2=O)cc1` (configuration not stated), the “growth rescue (activation)” value was inactive: -14.3%.

Take `Cc1cc(C)c(-c2csc(Cc3nc(-c4cc5ccccc5oc4=O)cs3)n2)cc1C`: the “growth rescue (activation)” value was inactive: 5.78%.

For `Nc1cccc2c(=O)c3ccccc3[nH]c12`, the “growth rescue (activation)” value was inactive: 1.55%.

As for `CC(=O)NC(c1cccc(F)c1)c1nc(-c2cc(F)cc(Cl)c2)cs1` (configuration not stated), the “growth rescue (activation)” value was inactive: 1.02%.

Turning to `CCc1nc2c(OCc3ccc(F)cc3)cccn2c1N(C)C(=O)c1ccc(C)cc1`, the “growth rescue (activation)” value was inactive: 6.6%.

For `COc1cc(C)ccc1OCCOCCOc1cc(C)c(C)cc1Br`, the “growth rescue (activation)” value is inactive: 2.97%.

Consider `COc1ccc(CC(N)c2csc(NC(=O)Nc3cc(OC)ccc3OC)n2)cc1` (configuration not stated), for which the “growth rescue (activation)” value is inactive: 11.1%.

For the compound `COc1ccc(/C=c2/sc3nc(-c4ccccc4)c(-c4ccccc4)n3c2=O)cc1`, the “growth rescue (activation)” value is inactive: -4.06%.

Turning to `Cc1nn(CC(=O)N(CC(C)C)C2CCS(=O)(=O)C2)c(C)c1[N+](=O)[O-]` (configuration not stated), the “growth rescue (activation)” value is inactive: 5.62%.

With `O=C(NCc1ccc(F)cc1)C1(S(=O)(=O)c2ccc(Cl)cc2)CC1`, the “growth rescue (activation)” value is inactive: 3.57%.

As to `O=C(NCc1ccco1)c1cccc(S(=O)(=O)N2CCCC2)c1`, the “growth rescue (activation)” value is inactive: 15%.

Take `CCCS(=O)(=O)NC(=O)C1(C)CCN(C(=O)c2c(F)ccc(C)c2F)C1` (configuration not stated): the “growth rescue (activation)” value was inactive: -6.66%.

For the compound `COC(=O)CNC(=O)CSc1nnc(C)c(=O)[nH]1`, the “growth rescue (activation)” value was inactive: 9.44%.

As for `O=C(NCC(c1ccco1)N1CCCCC1)c1ccc([N+](=O)[O-])s1` (configuration not stated), the “growth rescue (activation)” value is inactive: 15.4%.

Take `COc1ccccc1C(=O)N1CCN(Cc2c[nH]c3ccccc23)CC1`: the “growth rescue (activation)” value was inactive: 0.031%.

Consider `O=C(c1cc(F)c(F)c(F)c1F)N1CCN(C(=O)C2CCCO2)CC1` (configuration not stated), for which the “growth rescue (activation)” value was inactive: 5.65%.

Regarding `CCC(C(=O)N1CCc2ccccc2C1)n1nc(C)n2c(cc3occc32)c1=O` (configuration not stated), the “growth rescue (activation)” value was inactive: -12.1%.

`Cc1nnc(Nc2ccc(C(=O)O)cc2)[nH]c1=O`: the “growth rescue (activation)” value was inactive: -5.94%.

As for `COc1ccc(C(C(=O)NC2CCCC2)N(C(=O)c2ccoc2C)c2ccc(C)c(C)c2)cc1` (configuration not stated), the “growth rescue (activation)” value was inactive: 1.01%.

Take `COC(=O)CSc1nc2c(c(-c3ccc(O)cc3)c1C#N)CCCC2`: the “growth rescue (activation)” value is inactive: -19.3%.

On to `CNC(=S)Nc1ccc2nc(C)oc2c1`, for which the “growth rescue (activation)” value is inactive: 8.47%.

For the compound `COc1ccc(C(=O)N2CCN(C(=O)COc3ccc(C)cc3)CC2)cc1OC`, the “growth rescue (activation)” value is inactive: 2.51%.

As for `O=C(NCCc1ccccc1)C(=S)N1CCCCC1`, the “growth rescue (activation)” value is inactive: 12.5%.

Consider `O=C(C[n+]1cccc(C(=O)N/N=C/c2cccc([N+](=O)[O-])c2)c1)c1ccccc1`, for which the “growth rescue (activation)” value was inactive: 14.4%.

In the case of `CCOC(=O)c1ccc(N2C(=O)Cc3ccccc3C2=O)cc1`, the “growth rescue (activation)” value was inactive: 3.39%.

In the case of `CNC(=O)c1ccc(Nc2nnc(-c3ccc(C)c(S(=O)(=O)NCC4CCCO4)c3)c3ccccc23)cc1` (configuration not stated), the “growth rescue (activation)” value is inactive: 0.492%.

These data come from PubChem BioAssay AID1347073 (National Center for Advancing Translational Sciences (NCATS), 2019).
